This is one part of the list.
test system: PF3D7_0420300 AP2 domain 1 (GST-tagged); experiment: gcPBM binding intensity (ln(normalized median fluorescence intensity)); higher = stronger DNA binding
Procedure, shortened: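 The binding buffer was 1× PBS containing 1% milk, 0.2 mg/ml BSA, 0.5% salmon testes DNA and 0.03% Triton X-100. In it, GST-tagged P. falciparum DNA-binding domains expressed in E. coli were applied for 1 h to an Agilent 4 × 180k array of primer-extended double-stranded 36-bp intergenic genomic probes plus negative controls. Binding intensity, read with Alexa488 anti-GST antibody and a 488 nm scan, is the highest Masliner-normalised natural-log median intensity across replicate spots of either probe orientation.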

Sequence | gcPBM binding intensity (ln)
AAAAATAAAAGGTGTGCACACAAAAATATATATATA [CACACA_site8507] | 9.92
TATTGTTATTAAAAATGTACATATAAATTTCTTATT [XGTACX_site1409] | 9.1
GTATGATGCATAAGAGTGCATAAGGATATTTCTTCA | 9.11
AATTTAAAAAATAACAGTACATAAAATATATACATA [XGTACX_site7917] | 9.27
CATGCTACATCTTATTGTACTTATCTAATGTTAGTA [XGTACX_site1863] | 9.31
AAAAAGGAGAAACACACACACACACCCATATATATA [CACACA_site905] | 10.2
AGGCAATATTATATATATATATATATATATATATAT [CACACA_negctrl_site826] | 9.2
TCTTTTTACACCTCTTACATAAAACAAAATAAGGGG [XGTACX_negctrl_site12] | 9.57
TATACATGTTATGTACATCTAATCACACGTGCAATA [CACACA_negctrl_site1267] | 9.1
TTGTAAATTTACATTTGTACATAAATATATTAATAT [XGTACX_site3969] | 9.13
TGTATGTTTGGGTGCACACATAAATATTATATATAG [CACACA_site3397] | 9.35
ATATATATAAAACACACACACACATGGTTTAAAACT [CACACA_site4219] | 10.2
TGCAGTCTGGAGAAGAGTACACAGTATCTGGTAACA [XGTACX_site2037] | 9
TATATATTCATATGTTGTACATAAATACAAATAAGA [XGTACX_site5602] | 9.11
AACAGAATAATACTAAATGAACGATTTCTCTTTATG [GTGCAC_negctrl_site376] | 9.28
AAAGGTAAATGTAAATAAATAAATAATAAATATATA [GTGCAC_negctrl_site681] | 9.35
ATTAATATGAATAAAACACACATATATAATTTGTAA [CACACA_site1929] | 9.44
AAAAAAAAAAAGAAATGTACATGAATATTTTAAATG [XGTACX_site4069] | 9.12
ATTATTATTTTACGTAGTACATATAATAAATATTTA [XGTACX_site8934] | 8.97
GGAATATTATTTCAATGTACATTTTGAGATTAGAAT [XGTACX_site8187] | 9.04
TATCCATATTTGTTCACACACACACGGATTTATATA [CACACA_site7649] | 10.1
TTATTTCTAATTCGTTGTACAATATATAATATATAT [XGTACX_site5861] | 9.23
TTGATAGACACATGCACACATGCAATACTTTATTCA [CACACA_site3000] | 9.34

Sequence | gcPBM binding intensity (ln)
TAGGTGTTAAAAAATACACACACAAAAAAAAAAAAA [CACACA_site7927] | 9.6
ACATTTTTGGTTTTAGTGCAATATGAATTATTTTAT | 9.35
TCTTCCATTTTTATTACACACATAAATATGAAATCG [CACACA_site3471] | 9.53
CCTTTAAGCAAAAACACACACACATATATATATATA [CACACA_site348] | 9.78
ATTATTTTATATACATGTACATATTATATATAAAAG [XGTACX_site2735] | 9.02
TATAAAATAAAAAATATATATATGTATATATATATA [TGCATGCA_negctrl_site163] | 8.96
TATAAGTGCTCAACGGTGCATTTATAGAAGTTAAAC | 9.16
TTTCTTTTTTAGAGGTGTACACGTAGGCCTCTTGGA [XGTACX_site4760] | 8.82
TATTTATACACGCACACACACTTATACATTTATATA [CACACA_site7543] | 10.1
TTAGATATTAATATATGTACATATTAATATATTTAC [XGTACX_site7119] | 9.04
TATAATTTTTACTGGGTGCACTCGATATTTTAAATA | 9.15
TAAATGTAAAACGAAATGCACACTATGGAAAATATA [CACACA_site724] | 9.66
AAGACTCTTTGTCCTTGTACATATATTTTTATGTTT [XGTACX_site3711] | 9.4
TTTATATAATATGAATGTACTTATATATTTATAGAC [XGTACX_site3261] | 9.19
TATTTATTCTCCAACACACACACATATATATATATA [CACACA_site2894] | 9.92
AAAATGAATTTAAAATGTACTTTTTCTAAAGAGTAA [XGTACX_site2337] | 8.8
TTATAGGTGCTTCGTAGTACATAAAAATAATATATA [XGTACX_site6979] | 9.05
AGTTTTATATTTCTGAGTACTTATGAATCTAGCTCG [XGTACX_site4330] | 9.15
TTTTTTTTTTTTTTTACACACATTTTAATAATTTTA [CACACA_site1492] | 9.25
ATTTTTTCTAAAAGTTGTACATTAAAACGTGTTCAC [XGTACX_site4803] | 8.91
TTGTAAAAAATTCATACACACGTCTTATTTTTAAGA [CACACA_site8390] | 9.13
AGCAAAAATTAAATAAATAAATATATATATATATAT [TGCATGCA_negctrl_site449] | 9.12
AATGATGTCATAGGGGGTACACATAAATGTGAATGT [XGTACX_site6745] | 9.4

Sequence | gcPBM binding intensity (ln)
GCAACATTCTAAGACACACACACACCCATATATATA [CACACA_site1053] | 10.1
ATATTAATAATATATACACACATAAGTATTGTATAT [CACACA_site4095] | 9.41
AATAATATATATATATATATATATAGATATGTATAT [GTGCAC_negctrl_site653] | 9.25
GTTTATTCTTTTTATACACACCTTATTTGATTAACA [CACACA_site4567] | 9.69
TATACATAGAAACACACACACATATATATATATATA [CACACA_site2248] | 9.79
TTACTACTATATTATACACACATATATATATATATA [CACACA_site2621] | 9.61
TTCTAATATTTTTGCACACTAAACAATAAATTTCCT [CACACA_site3944] | 9.35
TTTATTTATGTAGATACACACCCATGTTATATGGAG [CACACA_site9144] | 9.15
TTAAAAGAAAAAATATGTACATATATTATATATATC [XGTACX_site7009] | 9.25
TGTGAATAAATAAGCACACATAAACACATATATAAA [CACACA_site6114] | 9.72
AATTTTATATATATATGTACATATTTATATGCTTAT [XGTACX_site8180] | 9.4
AATATAAGTGTACATACACACTTTACAATATCATAT [CACACA_site5634] | 9.43
ACATACATACCCCCACGTACGTACCGAAACACCACC [XGTACX_site1982] | 9.84
TTTCTATATCTTTCAACACACAAATTTTTTTTTCCA [CACACA_site108] | 9.28
CAAAGAACTTATAGGGTGCTTTACTTATAAGTAAAT [GTGCAC_site9579] | 9.12
GTGGTTGTAATGGTGGTGCATATTGTATATTATGTT | 9.6
ATGTTAACTAAATGTACACACCTATGTTGATGTAAC [CACACA_site5073] | 9.52
TATATATATAAAATATGTACATAAAATTATTTATTT [XGTACX_site7666] | 9.14
AAAGTTTAAATGAGAAGTACAAATTTTTGTTTTTAT [XGTACX_site1844] | 9.17
ATATAAAGTATGTTAGTGCACTTTTTTTTTTTTTTT [GTGCAC_site9419] | 9.24
GTAATACACATATAATGTACTCATAAATATATTTAT [XGTACX_site4041] | 9.29
TCATAGGAGAACTTTTGTACAGATTTTTCTTTTTTT [XGTACX_site2853] | 9.24
TGTTGTATTTTTACAACACACATTTAATCCATTTAA [CACACA_site1507] | 9.15

Sequence | gcPBM binding intensity (ln)
CTTATATATTGGGATAGTACTTTTAACTAAATAGAA [XGTACX_site5900] | 9.01
ACTTTACGAATTAAGAGTACTTATTTAAGGAACACT [XGTACX_site7919] | 9.05
TTTTTTTGCTCTTTTTATATATATATATATATATAT [GTGCAC_negctrl_site70] | 9.34
TTTTTATTGAGATACTTATATAATTTTATGAATAAA [XGTACX_negctrl_site311] | 8.66
TTTGAAAAGTTGAAATGTACACATTTACACATATTT [XGTACX_site1641] | 9.16
ATAATTATTCTTATGGTGCACTGAATATACATGTTG [GTGCAC_site9760] | 9.34
CAAAAATATATTTTTTGTACACAAAAAAAAAATAAA [XGTACX_site5229] | 8.97
ATAGCACATTTTTAAGCACACGTTTATTATATATAT [CACACA_site6084] | 9.59
AAAACTATTAAATGTAGTACATAATTATTGAAATAA [XGTACX_site8716] | 9.08
AAATACATATCATGTAGTACATATATATGTAGGTTA [XGTACX_site5392] | 9.4
TATATTACTTTGTGTTGTACGGAAATATATATATAT [XGTACX_site4309] | 9.24
AATATTCAATATATATATATATATAATATTAATATA [GTGCAC_negctrl_site571] | 9.05
ATATTTTATTTAATTACACACAATATTGCAATTTGT [CACACA_site669] | 9.64
AAGGATTTTTTATACACACACTAACTAATGTATATA [CACACA_site7163] | 9.57
TAATACCATAACAAGTGTACATAAATAATTATTGTA [XGTACX_site4949] | 9.52
ATCAACATTATGGTTAGTACTTAGTGAATTGTTAAT [XGTACX_site4926] | 9.19
GTGTAATATATTTTTCGTACATATTATATATATATA [XGTACX_site1675] | 9.5
TTATACACCTTTCATTGTACATATAATTTATATTCT [XGTACX_site8685] | 9.39
TCTTCTAATTTACCTACACACAGGAGATATATAAAT [CACACA_site6276] | 9.37
TATATATATATATATTGTACAAAATATTTATATGTT [XGTACX_site436] | 9.18

Source: the supplement of paper PMC11417369
